In the supplement of paper PMC11417369:
± gives the standard deviation of the averaged measurements. The list shows a part of the results.

test system: PfAP2-I AP2 domain 3 (GST-tagged); assay: gcPBM binding intensity (ln(normalized median fluorescence intensity)); higher = stronger DNA binding
How it was run: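 Probes on an Agilent 4 × 180k array were primer-extended, double-stranded and 36 bp long, taken from intergenic genomic regions, with negative controls added. GST-tagged P. falciparum DNA-binding domains from E. coli, about 25 μg on average, were applied to the array for 1 h in 1× PBS containing 1% milk, 0.2 mg/ml BSA, 0.5% salmon testes DNA and 0.03% Triton X-100. Binding intensity, obtained after Alexa488 anti-GST antibody detection and a 488 nm scan, is the highest Masliner-normalised natural-log median intensity across replicate spots of either probe orientation.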

Sequence | gcPBM binding intensity (ln)
AGCAGTCAGCAGGACAGTACACAGTAGCCAGTAACT [XGTACX_site1999] | 7.44 ± 0.81
TTTTTAGGAAAGGCGGCACACATTTATATATTTATT [CACACA_site3672] | 7.58 ± 0.75
ATAAAATAAATATAACCACACACGAAAGAGAGAGAA [CACACA_site9075] | 8.18 ± 0.75
TTCGCCCTAAATAGAGTGCATTATATATATTAATAT | 11.4 ± 0.58
TTCCAACCAATACAAACATGCATTTGAAAAAATGTA [TGCATGCA_site119] | 7.71 ± 0.36
TTGTATTACATAAATGTTCTTTATTATTTGATAAAA [CACACA_negctrl_site903] | 7.48 ± 0.42
TATATAATATATTAATGTACTTAAAATATATTCTAT [XGTACX_site1235] | 7.51 ± 0.28
TTTTTTAAATATTAAAAATGGGATCTTATAACATAT [GTGCAC_negctrl_site666] | 7.65 ± 0.38
TGTATAAACCCACGTACACACACTAAGTATATCCAA [CACACA_site1605] | 8.32 ± 0.2
TAAAATATATTGCCAGTGCATAATATATGTAATTAT | 10.6 ± 0.6
TTATTTTTAACGTACGCACACATATAAATATATTTA [CACACA_site1976] | 8.48 ± 0.28
AACTAATAAAAAAAAAAAACATTAAACAGGACAAAT [XGTACX_negctrl_site287] | 7.68 ± 0.8
TAAACAAATAAATAAACACACAATATAGGTATATAT [CACACA_site7739] | 7.64 ± 0.61
AATAAAATATACTATTGTACATATGGAACTACTTGA [XGTACX_site8928] | 7.53 ± 0.43
TTGTTTTTAGTTTATACACACCATATTAAAATAATG [CACACA_site5675] | 8.35 ± 0.44
ATTTATTATATATAGTGTACGTTCTTAATTATAATT [XGTACX_site7480] | 7.95 ± 0.35
CACATTTAGAAATAGTTTTATTTTGTATATTCTATT [CACACA_negctrl_site1382] | 7.33 ± 0.49
TTTTGTATATATCACATTAAAAGAAAAAAATATATG [GTGCAC_negctrl_site120] | 7.7 ± 0.39
GTATGTGTATGTGTATGTACATATGTATGTATAAAA [XGTACX_site8191] | 8.45 ± 0.83
TATACATTTATGTACACACACATATCTGTATATTTA [CACACA_site5617] | 7.67 ± 0.28
TATATATATTTCCAGTGTACTTATTTTTTAATCAAT [XGTACX_site8220] | 8.28 ± 0.49
TCCTCAAAAAAATAAAATAATTTATACTTTTTTAAA [GTGCAC_negctrl_site724] | 7.19 ± 0.3
AACCAATTATATTTACGTACGTACGGTTTTTTATAT [XGTACX_site1291] | 7.94 ± 0.48

Sequence | gcPBM binding intensity (ln)
AATAAAAAATATAACACAAATATGTATATATATATA [TGCATGCA_negctrl_site245] | 9.01
ACATATAAAATGTATACACACAAATATTACATATAT [CACACA_site1472] | 7.9 ± 0.35
CAAAAAAAAAAAAAAAATAAATAAAGGAAATAAAAA [CACACA_negctrl_site20] | 7.41 ± 0.57
TTCTCAAAGAAGAAAAAGTTTTTTTAATTTTTCTTT [XGTACX_negctrl_site543] | 7.09 ± 0.52
AATATATTTTTTTTTTGTACATATTGTAAAATAATA [XGTACX_site6805] | 7.83 ± 0.22
ATATATTAATATACTCGTACATATTCTTATTGTGTA [XGTACX_site3728] | 7.7 ± 0.63
GTGTAGTTAAAAAAAAGTACAGATTTTTTTTTTTTT [XGTACX_site849] | 8.05 ± 0.35
ATAAGAACGTCTATGTGTACGCAGCAAAACTGAGTT [XGTACX_site6385] | 7.83 ± 0.57
AAAAAAAAAAAAACAAGTACAAAGGATAGAAAAAAA [XGTACX_site4133] | 8.02 ± 0.43
ATAGAATATTGATATTGTACGTTATCTTAAAACAAT [XGTACX_site1702] | 7.75 ± 0.71
TAATTAAAATTATCTACACACCTTTATAAATATATA [CACACA_site3928] | 7.61 ± 0.47
AAAAAAAGTTGATACTGTACTCGTGCATTATGAATA [XGTACX_site5558] | 11.3 ± 0.57
CTTATTAAAATTATTTGTACACAATATGTAAAAGTA [XGTACX_site7237] | 8 ± 0.35
AGGTATTTTCTTGTGACACACATATATATATATATT [CACACA_site2220] | 8.27 ± 0.59
TTTATATTGATATATACACACATATACATCCTATTT [CACACA_site7442] | 7.71 ± 0.48
ATTATTGTTGTTCATGTACACACTATAATAAAAGCA [CACACA_site4168] | 8 ± 0.42
TTTTGCAATAATGTTGCACACTAAATAGTCATATAT [CACACA_site7977] | 9.07 ± 0.13
ATTAATTATTTCAATGCATGTGAACACTATATATAA [TGCATGCA_site600] | 8.11 ± 0.75
TAAATATTTTTATGGGTGCGTTCTTTAGCGCAATTT | 9.69 ± 0.29
CATATAAAAAATATGGTGCAGTTTTTTTTTTTTTTT | 10.2 ± 0.23
TATATATATAATGTTTGTACATATTAAATATATATG [XGTACX_site407] | 8.65 ± 0.099
TAAATACAAAAATGTACACACATATATATATTTTTA [CACACA_site3503] | 7.78 ± 0.3
CGGCACATTATATATACACACATATAAATATATACA [CACACA_site8086] | 7.92 ± 0.26

Sequence | gcPBM binding intensity (ln)
TAAATTTTAATATGCACACAAAATGTTATATTAAAA [CACACA_site4366] | 9.13 ± 0.35
TATATAAATATATATACACACAAAAAAAAAAAAAAA [CACACA_site1406] | 8.07 ± 0.59
TATATCTTAATATACACACACACATATATATATATA [CACACA_site4968] | 9.26 ± 0.42
TAAATGAAAACCATTAGTACTTATACTGATAAATGT [XGTACX_site763] | 7.61 ± 0.59
AAAAATAAAATAATATGTACATATATAATATATATA [XGTACX_site4786] | 8.19 ± 0.37
TATTCGAAAATTATTCAAATTATCTAACATATTATT [TGCATGCA_negctrl_site70] | 7.33 ± 0.28
TAATTTTTTAGACACACACACATATAAATATAAATA [CACACA_site6195] | 7.89 ± 0.38
AATTGGAAACAACCAAAAAAATTAAAGTTGTATCCT [CACACA_negctrl_site565] | 7.22 ± 0.6
TTGTATATTATATGTACACACAATAAGTTAATATAA [CACACA_site909] | 7.85 ± 0.38
ATAATATATTTTTGAACACACAATATAGATTTATAT [CACACA_site7857] | 7.62 ± 0.61
TTCCTTTGTCCTAACTGTACTCAAATTTATTAGTGG [XGTACX_site226] | 7.93 ± 0.42
TATATATATAAGTGCACACTGAACCAAGAAAATTAT [CACACA_site3008] | 10.5 ± 0.16
CGGCACATTATATATACACACATATAAATAAATACA [CACACA_site4477] | 7.62 ± 0.49
GGATTGATAAGTGGTACACACATATAGATTATAGAT [CACACA_site7367] | 8.1 ± 0.38
ATTTATATAAAGAATGTACACACAGAAATGCACCCA [CACACA_site8715] | 11 ± 0.83
AATATTAAATGAAAAAGTACAAACAGTCCTATATTA [XGTACX_site1926] | 7.58 ± 0.49
AAAAAAAAAAAACATACACACAAATAAATACATACA [CACACA_site6073] | 7.67 ± 0.47
TAAATATATATATGTGTGCACTTCTTCATTTTAATA [GTGCAC_site9537] | 10.01 ± 0.042
CGTATGCACAAATTATGTACTTATATATATATATAT [XGTACX_site2348] | 9.27 ± 0.22
AGCAACCTGAAAAAATTACTCTTTCTTAAACAAATT [XGTACX_negctrl_site266] | 7.55 ± 0.64
CACAGACACGGACACACACACACACCCATATATATA [CACACA_site4354] | 8.44 ± 0.64
ATACAAGAATTAAACACACACAAAATATAAATTCTT [CACACA_site3005] | 7.85 ± 0.71
TTAAGGATTAAGGTGTGTACATATAAATATTATATA [XGTACX_site7532] | 7.87 ± 0.5

Sequence | gcPBM binding intensity (ln)
ACCTGTAAAAATGTTTATATATATATATATATATAT [CACACA_negctrl_site1500] | 9.63 ± 0.35
AAAAAAAAAAAAAATTGTACATAATAAAAATATGGA [XGTACX_site3189] | 7.98 ± 0.49
TGTTTATTCTTTAAATATTATTCAAATACTACAAGT [CACACA_negctrl_site746] | 7.5 ± 0.4
AATTAATGGGTACATACACACATATATACCTACATA [CACACA_site4572] | 7.83 ± 0.37
TCCATTTATAAATTAGCATGCAATCTATGTCTGATA [TGCATGCA_site1045] | 7.57 ± 0.59
ATCAAAAGAAAACACACACACATACAGATATATATA [CACACA_site5974] | 7.99 ± 0.94
ATATATCAATATAAAAGTACAAACAAAAAATAATCA [XGTACX_site7559] | 7.87 ± 0.52
GATATATACTCCATCACACACCAAAAAGAAAAAAGA [CACACA_site7242] | 7.92 ± 0.45
ATATATATATATATATGTACATATTTCTCCATTTTT [XGTACX_site2869] | 9.25 ± 0.81
GCATTGTCCATGCGCACACACTACTAGAATAATATG [CACACA_site5932] | 8.48 ± 0.55
AAACCGTGGGAGCACACACACACACCGACACATATA [CACACA_site4338] | 8.37 ± 0.53
GTTTTTTATAATTGTAGTACAAGAAGATATTTTTAT [XGTACX_site5443] | 8.09 ± 0.3
TGCAATTGTAAAGGCGCACACATATATATATATATA [CACACA_site4894] | 9.49 ± 0.26
CATATTTTTATAAATTGTACGTATATTATATATATA [XGTACX_site1816] | 8.49 ± 0.26
CCATCTAAACACAACTCGAGTTGGATGTGTGAACTT [XGTACX_negctrl_site83] | 7.59 ± 0.59
GCTTTTGTCATGTGCACACACGTATATATTATATAT [CACACA_site6146] | 10.44 ± 0.085
ATTTATATTTGTATTTGTACTTATATTTATATTTAT [XGTACX_site1540] | 7.72 ± 0.35
AAAAAGGTTAAGGTAGTGCATAATAAAGAATATTAA | 11 ± 0.45
CTATTATAATATTTTACACACCATGTAAAATATATA [CACACA_site3206] | 7.75 ± 0.39
ATCATTCTTCATTTGTCACACATGATAAAAATATAT [CACACA_site4953] | 8.16 ± 0.48
